# The list shows a part of the results.
# Columns and labels:
# Experiment in all cases: glycan array binding signal (z-score within array); higher = stronger binding
# Settings in all cases: glycan notation: IUPAC condensed, linker removed
# [1] = target: Glc(b1-6)Glc
# Procedure, shortened: (§1)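 From the Consortium for Functional Glycomics database, 3228 arrays were curated, keeping only those whose protein sequence was available. Binding is given as a within-array Z-score averaged across arrays sharing a protein sequence and across linkers. Negative Z-scores can be read as non-binding.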
# [2] = target: GlcA(b1-3)Gal
# Procedure, shortened: as §1
# [3] = target: GlcA(b1-3)GlcNAc
# Procedure, shortened: as §1
# [4] = target: GlcA(b1-6)Gal
# Procedure, shortened: as §1
# [5] = target: GlcA3S(b1-3)Gal(b1-4)GlcNAc(b1-2)Man
# Procedure, shortened: as §1
# [6] = target: GlcA3S(b1-3)Gal(b1-4)GlcNAc(b1-3)Gal(b1-4)Glc
# Procedure, shortened: as §1
# [7] = target: GlcNAc(a1-3)Gal(b1-4)GlcNAc
# Procedure, shortened: as §1
# [8] = target: GlcNAc(a1-4)Gal(b1-3)GlcNAc
# Procedure, shortened: as §1
# [9] = target: GlcNAc(a1-4)Gal(b1-4)GalNAc
# Procedure, shortened: as §1
# [10] = target: GlcNAc(a1-4)Gal(b1-4)GlcNAc
# Procedure, shortened: as §1
# [11] = target: GlcNAc(a1-4)Gal(b1-4)GlcNAc(b1-3)Gal(b1-4)Glc
# Procedure, shortened: as §1
# [12] = target: GlcNAc(a1-4)Gal(b1-4)GlcNAc(b1-3)Gal(b1-4)GlcNAc
# Procedure, shortened: as §1
# [13] = target: GlcNAc(a1-4)Gal(b1-4)GlcNAc(b1-3)Gal(b1-4)GlcNAc(b1-3)Gal(b1-4)GlcNAc
# Procedure, shortened: as §1
# [14] = target: GlcNAc(a1-4)Gal(b1-4)GlcNAc(b1-3)Gal(b1-4)[Fuc(a1-3)]GlcNAc(b1-3)Gal(b1-4)[Fuc(a1-3)]GlcNAc
# Procedure, shortened: as §1
# [15] = target: GlcNAc(a1-6)Gal(b1-4)GlcNAc
# Procedure, shortened: as §1
# [16] = target: GlcNAc(b1-2)Gal(b1-3)GalNAc
# Procedure, shortened: as §1
# [17] = target: GlcNAc(b1-2)Man(a1-3)[GlcNAc(b1-2)Man(a1-6)]Man(b1-4)GlcNAc(b1-4)GlcNAc
# Procedure, shortened: as §1
# [18] = target: GlcNAc(b1-2)Man(a1-3)[GlcNAc(b1-2)Man(a1-6)]Man(b1-4)GlcNAc(b1-4)[Fuc(a1-6)]GlcNAc
# Procedure, shortened: as §1
# [19] = target: GlcNAc(b1-2)Man(a1-3)[GlcNAc(b1-4)][GlcNAc(b1-2)Man(a1-6)]Man(b1-4)GlcNAc(b1-4)GlcNAc
# Procedure, shortened: as §1
# [20] = target: GlcNAc(b1-2)Man(a1-3)[GlcNAc(b1-4)][GlcNAc(b1-2)Man(a1-6)]Man(b1-4)GlcNAc(b1-4)[Fuc(a1-6)]GlcNAc
# Procedure, shortened: as §1
# [21] = target: GlcNAc(b1-2)[GlcNAc(b1-4)]Man(a1-3)[GlcNAc(b1-2)Man(a1-6)]Man(b1-4)GlcNAc(b1-4)GlcNAc
# Procedure, shortened: as §1
# [22] = target: GlcNAc(b1-2)[GlcNAc(b1-4)]Man(a1-3)[GlcNAc(b1-4)][GlcNAc(b1-2)Man(a1-6)]Man(b1-4)GlcNAc(b1-4)GlcNAc
# Procedure, shortened: as §1
# [23] = target: GlcNAc(b1-2)[GlcNAc(b1-4)]Man(a1-3)[GlcNAc(b1-4)][GlcNAc(b1-2)[GlcNAc(b1-6)]Man(a1-6)]Man(b1-4)GlcNAc(b1-4)GlcNAc
# Procedure, shortened: as §1
# [24] = target: GlcNAc(b1-2)[GlcNAc(b1-4)]Man(a1-3)[GlcNAc(b1-4)][GlcNAc(b1-2)[GlcNAc(b1-6)]Man(a1-6)]Man(b1-4)GlcNAc(b1-4)[Fuc(a1-6)]GlcNAc
# Procedure, shortened: as §1
# [25] = target: GlcNAc(b1-2)[GlcNAc(b1-6)]Man(a1-6)[GlcNAc(b1-2)Man(a1-3)]Man(b1-4)GlcNAc(b1-4)GlcNAc
# Procedure, shortened: as §1
# [26] = target: GlcNAc(b1-2)[GlcNAc(b1-6)]Man(a1-6)[GlcNAc(b1-2)Man(a1-3)]Man(b1-4)GlcNAc(b1-4)[Fuc(a1-6)]GlcNAc
# Procedure, shortened: as §1
# [27] = target: GlcNAc(b1-2)[GlcNAc(b1-6)]Man(a1-6)[GlcNAc(b1-4)][GlcNAc(b1-2)Man(a1-3)]Man(b1-4)GlcNAc(b1-4)GlcNAc
# Procedure, shortened: as §1
# [28] = target: GlcNAc(b1-3)Fuc
# Procedure, shortened: as §1
# [29] = target: GlcNAc(b1-3)Gal
# Procedure, shortened: as §1
# [30] = target: GlcNAc(b1-3)Gal(b1-3)GalNAc
# Procedure, shortened: as §1
# [31] = target: GlcNAc(b1-3)Gal(b1-4)Glc
# Procedure, shortened: as §1
# [32] = target: GlcNAc(b1-3)Gal(b1-4)GlcNAc
# Procedure, shortened: as §1
# [33] = target: GlcNAc(b1-3)Gal(b1-4)GlcNAc(b1-2)Man(a1-3)[GlcNAc(b1-3)Gal(b1-4)GlcNAc(b1-2)Man(a1-6)]Man(b1-4)GlcNAc(b1-4)GlcNAc
# Procedure, shortened: as §1
# [34] = target: GlcNAc(b1-3)Gal(b1-4)GlcNAc(b1-2)Man(a1-3)[GlcNAc(b1-3)Gal(b1-4)GlcNAc(b1-2)Man(a1-6)]Man(b1-4)GlcNAc(b1-4)[Fuc(a1-6)]GlcNAc
# Procedure, shortened: as §1
# [35] = target: GlcNAc(b1-3)Gal(b1-4)GlcNAc(b1-2)[GlcNAc(b1-3)Gal(b1-4)GlcNAc(b1-6)]Man(a1-6)[GlcNAc(b1-3)Gal(b1-4)GlcNAc(b1-2)Man(a1-3)]Man(b1-4)GlcNAc(b1-4)GlcNAc
# Procedure, shortened: as §1
# [36] = target: GlcNAc(b1-3)Gal(b1-4)GlcNAc(b1-3)Gal(b1-4)GlcNAc
# Procedure, shortened: as §1
# [37] = target: GlcNAc(b1-3)Gal(b1-4)GlcNAc(b1-3)Gal(b1-4)GlcNAc(b1-2)Man(a1-3)[GlcNAc(b1-3)Gal(b1-4)GlcNAc(b1-3)Gal(b1-4)GlcNAc(b1-2)Man(a1-6)]Man(b1-4)GlcNAc(b1-4)GlcNAc
# Procedure, shortened: as §1
# [38] = target: GlcNAc(b1-3)Gal(b1-4)GlcNAc(b1-3)Gal(b1-4)GlcNAc(b1-2)Man(a1-3)[GlcNAc(b1-3)Gal(b1-4)GlcNAc(b1-3)Gal(b1-4)GlcNAc(b1-2)Man(a1-6)]Man(b1-4)GlcNAc(b1-4)[Fuc(a1-6)]GlcNAc
# Procedure, shortened: as §1
# [39] = target: GlcNAc(b1-3)Gal(b1-4)GlcNAc(b1-3)Gal(b1-4)GlcNAc(b1-2)[GlcNAc(b1-3)Gal(b1-4)GlcNAc(b1-3)Gal(b1-4)GlcNAc(b1-6)]Man(a1-6)[GlcNAc(b1-3)Gal(b1-4)GlcNAc(b1-3)Gal(b1-4)GlcNAc(b1-2)Man(a1-3)]Man(b1-4)GlcNAc(b1-4)[Fuc(a1-6)]GlcNAc
# Procedure, shortened: as §1
# [40] = target: GlcNAc(b1-3)Gal(b1-4)GlcNAc(b1-3)Gal(b1-4)GlcNAc(b1-3)Gal(b1-4)GlcNAc(b1-2)Man(a1-3)[GlcNAc(b1-3)Gal(b1-4)GlcNAc(b1-3)Gal(b1-4)GlcNAc(b1-3)Gal(b1-4)GlcNAc(b1-2)Man(a1-6)]Man(b1-4)GlcNAc(b1-4)GlcNAc
# Procedure, shortened: as §1
# [41] = target: GlcNAc(b1-3)Gal(b1-4)GlcNAc(b1-3)Gal(b1-4)GlcNAc(b1-3)Gal(b1-4)GlcNAc(b1-2)Man(a1-3)[GlcNAc(b1-3)Gal(b1-4)GlcNAc(b1-3)Gal(b1-4)GlcNAc(b1-3)Gal(b1-4)GlcNAc(b1-2)Man(a1-6)]Man(b1-4)GlcNAc(b1-4)[Fuc(a1-6)]GlcNAc
# Procedure, shortened: as §1
# [42] = target: GlcNAc(b1-3)Gal(b1-4)GlcNAc(b1-3)Gal(b1-4)GlcNAc(b1-3)Gal(b1-4)GlcNAc(b1-2)[GlcNAc(b1-3)Gal(b1-4)GlcNAc(b1-3)Gal(b1-4)GlcNAc(b1-3)Gal(b1-4)GlcNAc(b1-6)]Man(a1-6)[GlcNAc(b1-3)Gal(b1-4)GlcNAc(b1-3)Gal(b1-4)GlcNAc(b1-3)Gal(b1-4)GlcNAc(b1-2)Man(a1-3)]Man(b1-4)GlcNAc(b1-4)[Fuc(a1-6)]GlcNAc
# Procedure, shortened: as §1
# [43] = target: GlcNAc(b1-3)Gal(b1-4)GlcNAc(b1-3)Gal(b1-4)GlcNAc(b1-3)Gal(b1-4)GlcNAc(b1-3)Gal(b1-4)GlcNAc(b1-2)Man(a1-3)[GlcNAc(b1-3)Gal(b1-4)GlcNAc(b1-3)Gal(b1-4)GlcNAc(b1-3)Gal(b1-4)GlcNAc(b1-3)Gal(b1-4)GlcNAc(b1-2)Man(a1-6)]Man(b1-4)GlcNAc(b1-4)GlcNAc
# Procedure, shortened: as §1
# [44] = target: GlcNAc(b1-3)Gal(b1-4)GlcNAc(b1-3)Gal(b1-4)GlcNAc(b1-3)Gal(b1-4)GlcNAc(b1-3)Gal(b1-4)GlcNAc(b1-2)Man(a1-3)[GlcNAc(b1-3)Gal(b1-4)GlcNAc(b1-3)Gal(b1-4)GlcNAc(b1-3)Gal(b1-4)GlcNAc(b1-3)Gal(b1-4)GlcNAc(b1-2)Man(a1-6)]Man(b1-4)GlcNAc(b1-4)[Fuc(a1-6)]GlcNAc
# Procedure, shortened: as §1
# [45] = target: GlcNAc(b1-3)Gal(b1-4)GlcNAc(b1-3)Gal(b1-4)GlcNAc(b1-3)Gal(b1-4)GlcNAc(b1-3)Gal(b1-4)GlcNAc(b1-2)[GlcNAc(b1-3)Gal(b1-4)GlcNAc(b1-3)Gal(b1-4)GlcNAc(b1-3)Gal(b1-4)GlcNAc(b1-3)Gal(b1-4)GlcNAc(b1-6)]Man(a1-6)[GlcNAc(b1-3)Gal(b1-4)GlcNAc(b1-3)Gal(b1-4)GlcNAc(b1-3)Gal(b1-4)GlcNAc(b1-3)Gal(b1-4)GlcNAc(b1-2)Man(a1-3)]Man(b1-4)GlcNAc(b1-4)[Fuc(a1-6)]GlcNAc
# Procedure, shortened: as §1
binder,measurement,setting,value
PX14375l-pdi-526-25-526 (Parabacteroides distasonis) (protein) DEEPKSTLTDVAYYKTQSQMESNVNYLYRTGAIGSYVDFGSAYIGPFASIQEELTGYFSNSYEGQEIVCRYTRELTRQQNTMQLASKMDKVWDDCYRGINVANGAIKHMPEVPMDQATADRLTAEAKFFRAFNYFYLVKTFGAVPFYTDPYELAENMELPRTETSTIYNQIESDLKDAMNVLPEATFAANGHRITKYVAAMTLTDVYMYQHKYAEAAETVRIVVNSNHKLTTNDDLAMNSAFNKLRSTDDLDEAIYAYEYDNQISPSNWLPTYAFDGDASSNGLFGTYAITQKVHGPNDRYLNIYESNDLRRQPNQFYHWTYTNPKTGKVWNSVGNAACCWYYYDEDALLTTGRGTKDWNVYRYAEALLDAAESIAQSTGVTAEAAGYLAQVKARANMEGKTAAEIASSLQSMGKQAFIEECWTERLRELPLEFKMWDMCVRTGMFPNISETTPGQVTYIPLVGAKNASGATIKESDLLWPLSVNEIQRNPSLTQNEGYSAK,glycan array binding signal (z-score),[1],-0.224
same,glycan array binding signal (z-score),[2],-0.252
same,glycan array binding signal (z-score),[3],-0.199
same,glycan array binding signal (z-score),[4],-0.409
same,glycan array binding signal (z-score),[5],0.055
same,glycan array binding signal (z-score),[6],-0.146
same,glycan array binding signal (z-score),[7],-0.379
same,glycan array binding signal (z-score),[8],-0.343
same,glycan array binding signal (z-score),[9],-0.157
same,glycan array binding signal (z-score),[10],-0.095
same,glycan array binding signal (z-score),[11],-0.255
same,glycan array binding signal (z-score),[12],-0.254
same,glycan array binding signal (z-score),[13],-0.191
same,glycan array binding signal (z-score),[14],-0.286
same,glycan array binding signal (z-score),[15],-0.382
same,glycan array binding signal (z-score),[16],-0.124
same,glycan array binding signal (z-score),[17],-0.225
same,glycan array binding signal (z-score),[18],0.067
same,glycan array binding signal (z-score),[19],-0.304
same,glycan array binding signal (z-score),[20],-0.202
same,glycan array binding signal (z-score),[21],-0.508
same,glycan array binding signal (z-score),[22],-0.387
same,glycan array binding signal (z-score),[23],-0.349
same,glycan array binding signal (z-score),[24],-0.397
same,glycan array binding signal (z-score),[25],-0.052
same,glycan array binding signal (z-score),[26],-0.107
same,glycan array binding signal (z-score),[27],-0.309
same,glycan array binding signal (z-score),[28],-0.349
same,glycan array binding signal (z-score),[29],-0.32
same,glycan array binding signal (z-score),[30],-0.04
same,glycan array binding signal (z-score),[31],-0.236
same,glycan array binding signal (z-score),[32],-0.349
same,glycan array binding signal (z-score),[33],-0.322
same,glycan array binding signal (z-score),[34],0.013
same,glycan array binding signal (z-score),[35],0.167
same,glycan array binding signal (z-score),[36],-0.504
same,glycan array binding signal (z-score),[37],-0.17
same,glycan array binding signal (z-score),[38],0.182
same,glycan array binding signal (z-score),[39],0.155
same,glycan array binding signal (z-score),[40],-0.168
same,glycan array binding signal (z-score),[41],0.147
same,glycan array binding signal (z-score),[42],0.491
same,glycan array binding signal (z-score),[43],0.058
same,glycan array binding signal (z-score),[44],-0.366
same,glycan array binding signal (z-score),[45],-0.068
